The target in one experiment is His-tagged IGFBP3 (Homo sapiens (Human), UniProt P17936). Kind of experiment: competition radioligand binding (125I-IGF2).
Experiment [1] has as its target IGFBP3:ALS complex, preformed on immobilized His-tagged ALS (Homo sapiens (Human),Homo sapiens …, UniProt P35858,P17936). The experiment is described as follows: competition radioligand binding (125I-IGF2); ternary complex: IGFBP3 preformed with immobilized ALS.
Sequence of UniProt P35858 (P35858 28-605, chain 1 of 2): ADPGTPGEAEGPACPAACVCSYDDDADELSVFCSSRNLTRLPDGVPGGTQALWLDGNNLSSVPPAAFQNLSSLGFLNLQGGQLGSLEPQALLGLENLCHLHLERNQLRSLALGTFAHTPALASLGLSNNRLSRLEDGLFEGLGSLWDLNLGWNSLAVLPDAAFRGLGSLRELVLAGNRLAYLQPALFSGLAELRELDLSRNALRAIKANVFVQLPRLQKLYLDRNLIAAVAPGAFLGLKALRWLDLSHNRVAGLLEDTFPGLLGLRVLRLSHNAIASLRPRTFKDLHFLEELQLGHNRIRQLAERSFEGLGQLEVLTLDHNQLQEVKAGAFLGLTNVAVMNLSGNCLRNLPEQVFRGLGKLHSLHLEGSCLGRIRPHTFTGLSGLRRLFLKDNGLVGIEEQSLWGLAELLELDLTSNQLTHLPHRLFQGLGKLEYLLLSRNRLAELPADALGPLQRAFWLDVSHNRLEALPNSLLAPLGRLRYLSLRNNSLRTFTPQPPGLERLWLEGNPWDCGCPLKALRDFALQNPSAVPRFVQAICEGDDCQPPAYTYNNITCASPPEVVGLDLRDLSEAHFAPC
Sequence of UniProt P35858 (P17936 28-291, chain 2 of 2, further chain): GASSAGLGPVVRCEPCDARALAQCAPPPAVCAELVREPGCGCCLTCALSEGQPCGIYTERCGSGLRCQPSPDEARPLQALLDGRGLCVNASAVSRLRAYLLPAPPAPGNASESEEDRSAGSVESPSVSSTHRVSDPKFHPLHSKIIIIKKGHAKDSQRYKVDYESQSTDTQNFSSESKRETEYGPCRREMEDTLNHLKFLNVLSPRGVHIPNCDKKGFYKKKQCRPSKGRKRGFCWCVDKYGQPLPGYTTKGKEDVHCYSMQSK

Sequence of His-tagged IGFBP3 (P17936 28-291): as the sequence (P17936 28-291, chain 2 of 2, further chain) above

B1: glycosylated pro-IGF2(156) (protein)
chain: not shown
modifications: glycosylated
Turning to B1, the binding result with His-tagged IGFBP3 is listed as “binds”.

B2: pro-IGF2(156), non-glycosylated (protein)
chain: not shown
Turning to B2, the binding result (with His-tagged IGFBP3; in experiment [1]) was “binds” in each case.

The values are drawn from publication PMC10439913 (2023).
